Test results: a collection of fitness landscapes (doi:10.1126/science.1257360)
Some of the results follow.

B1: PhoQ; a variant is named by its letters at X, in order, P23837 (parent)
chain: MKKLLRLFFPLSLRVRFLLATAAVVLVLSLAYGMVALIGYSVSFDKTTFRLLRGESNLFYTLAKWENNKLHVELPENIDKQSPTMTLIYDENGQLLWAQRDVPWLMKMIQPDWLKSNGFHEIEADVNDTSLLLSGDHSIQQQLQEVREDDDDAEMTHSVAVNVYPATSRMPKLTIVVVDTIPVELKSSYMVWSWFIYVLSANLLLVIPLLWVAAWWSLRPIEALAKEVRELEEHNRELLNPATTRELTSLVRNLNRLLKSERERYDKYRTTLTDLTHSLKTPLXXLQXXLRSLRSEKMSVSDAEPVMLEQISRISQQIGYYLHRASMRGGTLLSRELHPVAPLLDNLTSALNKVYQRKGVNISLDISPEISFVGEQNDFVEVMGNVLDNACKYCLEFVEISARQTDEHLYIVVEDDGPGIPLSKREVIFDRGQRVDTLRPGQGVGLAVAREITEQYEGKIVAGESMLGGARMEVIFGRQHSAPKDE

Variants of: B1
Test: enrichment ratio after two sorts for PhoP signalling (ratio (wild type AVST 3.29)); higher = more functional
Conditions: with PhoP (E. coli)

Variant | enrichment ratio
EPAG | ≤ 0.25
YGIW | ≤ 0.25
AHGW | ≤ 0.25
TLVV | ≤ 0.25
VTQE | ≤ 0.25
NTNF | ≤ 0.25
AHSH | ≤ 0.25
ACPW | ≤ 0.25
TFLS | 3.13
FDHQ | ≤ 0.25
YDVS | ≤ 0.25
NALD | ≤ 0.25
KDFY | ≤ 0.25
FPML | ≤ 0.25
VRPL | ≤ 0.25
QTHP | ≤ 0.25
PMTQ | ≤ 0.25
KASQ | ≤ 0.25
MMLF | ≤ 0.25
ARDC | ≤ 0.25
SQHW | ≤ 0.25
RMWG | ≤ 0.25
ASPG | ≤ 0.25

Variant | enrichment ratio
IHVH | ≤ 0.25
QGIP | ≤ 0.25
LITK | ≤ 0.25
GYMR | ≤ 0.25
IMAR | ≤ 0.25
SFDI | 0.302
FPEI | ≤ 0.25
SATA | 2.59
IKWD | ≤ 0.25
PWYF | ≤ 0.25
DLDK | ≤ 0.25
GHRN | ≤ 0.25
IAEA | ≤ 0.25
HNWD | ≤ 0.25
IKPW | ≤ 0.25
KCKC | ≤ 0.25
GKTV | ≤ 0.25
DTII | ≤ 0.25
HFEK | ≤ 0.25
IVIH | ≤ 0.25
KFCW | ≤ 0.25
ASFE | ≤ 0.25
GRNP | ≤ 0.25

Variant | enrichment ratio
TYCI | ≤ 0.25
FECV | 5.83
LTMP | ≤ 0.25
GCSD | ≤ 0.25
MEPL | ≤ 0.25
FWAV | ≤ 0.25
DDVC | ≤ 0.25
TSRT | ≤ 0.25
MQRN | ≤ 0.25
VDYI | ≤ 0.25
YFEG | ≤ 0.25
PLTQ | ≤ 0.25
YCVM | ≤ 0.25
TAGY | 34.1
WSVW | ≤ 0.25
VTVL | 0.537
RGQR | ≤ 0.25
HSHS | ≤ 0.25
FIMT | ≤ 0.25
GVKF | ≤ 0.25
IKDD | ≤ 0.25
RQRW | ≤ 0.25
FSHE | ≤ 0.25

Variant | enrichment ratio
PCFE | ≤ 0.25
RLWI | ≤ 0.25
DPWK | ≤ 0.25
KMRR | ≤ 0.25
NKYT | ≤ 0.25
IADL | ≤ 0.25
YVTD | ≤ 0.25
HMCG | ≤ 0.25
LIKD | ≤ 0.25
EHYW | ≤ 0.25
PDPH | ≤ 0.25
FPSE | ≤ 0.25
EIGS | ≤ 0.25
HKNA | ≤ 0.25
LFMF | ≤ 0.25
TQLH | 8.84
PAGH | ≤ 0.25
YWED | ≤ 0.25
TCQE | ≤ 0.25
FGIL | 1.13
RTSR | ≤ 0.25
PLAP | ≤ 0.25
WQAS | ≤ 0.25

Variant | enrichment ratio
MRRN | ≤ 0.25
WVKM | ≤ 0.25
SSDW | ≤ 0.25
QCSR | ≤ 0.25
PMVH | ≤ 0.25
TDIA | ≤ 0.25
FGQL | ≤ 0.25
KKFD | ≤ 0.25
EFCE | ≤ 0.25
DNHI | ≤ 0.25
HHWN | ≤ 0.25
RNPP | ≤ 0.25
KCLM | ≤ 0.25
DAAR | 0.417
GDTI | ≤ 0.25
LIMH | ≤ 0.25
NWAQ | ≤ 0.25
HVCH | ≤ 0.25
DNSL | ≤ 0.25
RLCD | ≤ 0.25
IHEQ | ≤ 0.25
PWAS | ≤ 0.25
YLQC | ≤ 0.25

Variant | enrichment ratio
DNPE | ≤ 0.25
VFHG | ≤ 0.25
HSSA | ≤ 0.25
DNIF | ≤ 0.25
VRWW | ≤ 0.25
EYSV | ≤ 0.25
KVRM | ≤ 0.25
NSVG | ≤ 0.25
YFTR | ≤ 0.25
TYQH | ≤ 0.25
GTHS | ≤ 0.25
SNQM | 9.41
HKCN | ≤ 0.25
VGVP | ≤ 0.25
GRSD | ≤ 0.25
QYVR | ≤ 0.25
RYTL | ≤ 0.25
HSWF | ≤ 0.25
YMHQ | ≤ 0.25
GFHT | ≤ 0.25
MMRW | ≤ 0.25
